Results from the RNAGym collection of RNA variant scans (doi:10.7554/elife.90254).
The source gives no read counts; variants with many changes may rest on few reads.

B1: LINE1-mini (parent)
chain: GGCAGAGCUCAACACAGCGUGGCAAAGUGGCUGUGGCUAGACUGCC

Variants of: B1
Experiment: self-cleavage, relative activity (ratio to wild type); higher = more cleavage; in vitro, sequencing; the parent is a self-cleaving ribozyme

Row | Variant | self-cleavage
1 | G7U C18G U20C | 0.13
2 | G7C A16U U20C G40U G44A | 0.09
3 | G7C U20G G30A | 0.16
4 | G7U C10G G22C A26C A39U C42G | 0
5 | G7C A12G C42G | 0.02
6 | G7C G29C A41C G44C | 0.04
7 | G7C A16C G17A A26U U32A U38G | 0
8 | G7C C18G C31U | 0
9 | G7C A14C C15G C31U G33C | 0.09
10 | G7U U20A G27U G36U | 0.03
11 | G7U G29U G40A U43C | 0.04
12 | G7U A11G C13U G36U | 0.01
13 | G7U G22C G29U A41U C42U G44A | 0.21
14 | G7U A14G C31A | 0.11
15 | G7U C10G A14C G44U C46A | 0.07
16 | G7C C8A A24G U43C | 0.06
17 | G7U G27C A39U | 0.07
18 | G7U U20G C23A | 0.01
19 | G7U C18G U38C | 0.07
20 | G7C C8U A11C C15U G27A G30A C37A U38C | 0.01
21 | G7C C10A C31G G44U | 0.03
22 | G7C C23G U34A C46U | 0.05
23 | G7U G21U C37G | 0.02
24 | G7U G44U C46U | 0.21

Row | Variant | self-cleavage
25 | G7U C8U C31G | 0.11
26 | G7U G21A G40U | 0.12
27 | G7U G22A G33U C37U C42U G44U | 0
28 | G7U G21U U43C | 0.02
29 | G7C G19C U34A | 0.03
30 | G7C C10A G21U G35U C45U | 0.04
31 | G7U A14G G33U | 0.25
32 | G7C A11U G17U G19A G21U | 0.02
33 | G7U A12U C23G | 0.01
34 | G7U A26U U28A | 0.04
35 | G7C A12U A25C G27A G36U C45A | 0.01
36 | G7U C10A A14U U28G U32A | 0.03
37 | G7U A16G G29A C45A | 0.21
38 | G7U C18G G29A | 0.03
39 | G7U A14G C15G | 0.06
40 | G7U C18A C31A | 0.07
41 | G7U A24G G35C | 0.05
42 | G7U G19U G21A | 0.01
43 | G7C C8U C13G G29C | 0.07
44 | G7C G21U G33C | 0.04
45 | G7U A12U U32G | 0.02
46 | G7C A16U C31G | 0.02
47 | G7U G29U C42A | 0.08
48 | G7U A14G U32C | 0.1

Row | Variant | self-cleavage
49 | G7C G22A G27C G33A U43A | 0.05
50 | G7U C15U G22A | 0.1
51 | G7C U9C A39C G40A | 0.01
52 | G7C C10A A16C G19U A24C C46A | 0.01
53 | G7U G29A U38G | 0.02
54 | G7C A25C U34A | 0.02
55 | G7C A12C G21C A39G | 0
56 | G7C U38G A39G A41U | 0
57 | G7C G33U A39U | 0.06
58 | G7U A16U U20C G22U | 0.07
59 | G7U A14U A24U | 0.45
60 | G7U G21U A41U | 0.09
61 | G7U A11U A25U | 0.04
62 | G7C A24G G33A C37G | 0.02
63 | G7U G19A G21C | 0.04
64 | G7U G30C G40A | 0.18
65 | G7U A12G A24C G29C | 0.01
66 | G7C A12G C13G G21U U32C G35U A39U G40U | 0
67 | G7C A26G U32A | 0.03
68 | G7C A14U C23G G29U | 0.08
69 | G7U C8A A26G G44U | 0.14
70 | G7U C8U U9G A41U C42A C46U | 0.11
71 | G7U U9G G30A | 0.25
72 | G7C C23A C37A U38A C42U | 0

Row | Variant | self-cleavage
73 | G7U C8U A16U G40A | 0.14
74 | G7U A14G G22A G30A U38G | 0
75 | G7U U9A A26C | 0.04
76 | G7C G29A C42U | 0.03
77 | G7U G22C U32G G33A G40C | 0.07
78 | G7C G30C G40C C46U | 0.07
79 | G7C C31U G33A G36U C45G | 0
80 | G7U G21A C31U | 0.09
81 | G7C G21A G27U G40U | 0.12
82 | G7C A16U G17C U32C U34G | 0.02
83 | G7C C13U A24C A39C | 0.06
84 | G7C U9G C10G A11C C15U A16C C31U A39C | 0.01
85 | G7U A14U G17U C45U | 0.06
86 | G7U C13U G35U C37U | 0.06
87 | G7U A12C G22A | 0.02
88 | G7U G17U U34C G40C | 0.07
89 | G7U C10U A39G | 0.02
90 | G7C U9A A24C G33A G36C | 0.03
91 | G7U C31A C45A | 0.16
92 | G7C U32C G44U | 0.15
93 | G7U G33U G40U | 0.06
94 | G7U A12G C23G A41U | 0.02
95 | G7C U28G C31A G36U C46U | 0.02
96 | G7U A14C C18U U20G G40A C45U | 0

Row | Variant | self-cleavage
97 | G7U C10A A16U A24U G44A C45G | 0.02
98 | G7U C18G A26U | 0.05
99 | G7U G21U A24C | 0.04
100 | G7U A12G C37A | 0.01
101 | G7U U20C G21U C42U | 0.04
102 | G7C G35C A39U | 0.06
103 | G7C C23G C37A | 0.03
104 | G7C G17C C18A G22C | 0.04
105 | G7U C23U G27C | 0.03
106 | G7C U34G U38G | 0.03
107 | G7U G19A G29A G36C | 0.09
108 | G7U C13A G27C U38C G40U | 0.21
109 | G7C C8U C18G A25C U38G A41U | 0.03
110 | G7C A11U C13G A14C A24G C37A | 0
111 | G7U A12U C13A G17A A26U G40A C42A | 0.22
112 | G7C G30U C31U | 0.02
113 | G7C C31U G36C | 0.06
114 | G7C C13G C18U U38G C45U | 0.01
115 | G7U C13A U20G G21U U28A | 0.07
116 | G7C U9A C45U | 0.09
117 | G7U C31A G36A G40C | 0.04
118 | G7U A14C G33A | 0.05
119 | G7U C15G C46A | 0.16
120 | G7C C45G C46U | 0.09

Row | Variant | self-cleavage
121 | G7U C13A A14U C15U G35C A39U | 0.02
122 | G7C C18A G19C C23G A24C G30A C45G | 0.1
123 | G7U U9C G33U | 0.07
124 | G7C G22A G44U | 0.07
125 | G7C A12U C23G G29C G33U A41U | 0.02
126 | G7C G33A C37G | 0.03
127 | G7U C10U G17U C18G U20C A24G G29A C37A | 0.05
128 | G7U A11C A24U A26U G29U A41C | 0.01
129 | G7U A14G G35U | 0.08
130 | G7C C8U C18G C31U C42A | 0.14
131 | G7U C18U C23G A25C | 0.03
132 | G7U G22U C45A | 0.17
133 | G7C A12C C23U U43A | 0.01
134 | G7U A12C G17A G27C | 0.03
135 | G7U C23U G35A | 0.04
136 | G7C A11C C18G | 0.01
137 | G7U C8G C13U C18A C23U C37U | 0.16
138 | G7U G19A U20A G22A C37G G40A C45G | 0.03
139 | G7U C13A A25G G27A U28G C37A U38C | 0.01
140 | G7C G30C G40A | 0.06
141 | G7C C13U G19U U20C G36A C46U | 0.11
142 | G7C G22A A39U | 0.08
143 | G7U C18U U20G | 0.02
144 | G7U C8G C15G A16G U34C | 0.01

Row | Variant | self-cleavage
145 | G7U C37G C45G | 0.03
146 | G7U C10A C13A C23A A39G C42G | 0.01
147 | G7U C23A U28C C37G | 0.03
148 | G7U A14U C18G | 0.09
149 | G7U C8A C37U C45A | 0.35
150 | G7C C23U A41G | 0.01
151 | G7U C18G G30U C42U C46U | 0.03
152 | G7C A39C G44U | 0.1
153 | G7C U9A A14C A16G U32G | 0.08
154 | G7C C8G A16U C31U U38G | 0.06
155 | G7C G22C A39C U43C | 0.03
156 | G7C U9C A41G C45G | 0.09
157 | G7U G17A C37U A41C | 0.1
158 | G7C A11C C31U | 0.02
159 | G7C C8A C23U G36A C46A | 0.13
160 | G7C A25G C46U | 0.1
161 | G7U G17U C37G C46G | 0.02
162 | G7U C10U U43A G44C | 0.09
163 | G7C C13U U20G G30C C31U | 0.01
164 | G7U G22A C23A G29U G36A G40A C45U | 0.08
165 | G7U A11U G44U | 0.01
166 | G7C C8G C13U G21C | 0.07
167 | G7C A14U G36U U38C | 0.09
